Results taken from PubChem BioAssay AID485294 (National Center for Advancing Translational Sciences (NCATS), 2010).
Where “and” joins values, the source holds several entries; their conditions need not be identical. Identical values can stand only once. About 150 (0.041%) of roughly 370,000 compounds were called active. The shares of active, inactive and inconclusive entries below differ from those in the screen. Calls come from the whole dose curve; as a rule, active = well fitted inhibition curve with a large enough effect; inconclusive = small, poorly fitted or top-dose-only effect; inactive = flat fitted curve, though single readings scatter. Where the call is inconclusive, the potency comes from a doubtful curve fit.

target: Beta-lactamase (Escherichia coli (strain K12)) (UniProt P00811); assay: qHTS Inhibitors of AmpC Beta-Lactamase (assay with detergent); settings: AmpC hydrolysis of nitrocefin, absorbance 480 nm, 0.01% Triton; activity change, negative = inhibition: at 114 µM (top of the series); note: nearly all actives have a fitted effect of over 25% in size;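 for activity change, negative = inhibition: 0% = no-compound wells and -100% = no-enzyme wells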
Method in brief: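 AmpC (5.3 nM in the dispensed reagent) in 20 mM phosphate pH 7.0 with 0.01% (detergent screen) or 0.0001% Triton X-100 was preincubated with compounds for 15 min at room temperature. Nitrocefin was then added from an 800 uM solution, and hydrolysis was followed at 480 nm.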
Potency is the fitted concentration of half-maximal effect; tags give direction and shape of the fitted curve.

UniProt P00811, sequence (P00811 whole entry, looked up): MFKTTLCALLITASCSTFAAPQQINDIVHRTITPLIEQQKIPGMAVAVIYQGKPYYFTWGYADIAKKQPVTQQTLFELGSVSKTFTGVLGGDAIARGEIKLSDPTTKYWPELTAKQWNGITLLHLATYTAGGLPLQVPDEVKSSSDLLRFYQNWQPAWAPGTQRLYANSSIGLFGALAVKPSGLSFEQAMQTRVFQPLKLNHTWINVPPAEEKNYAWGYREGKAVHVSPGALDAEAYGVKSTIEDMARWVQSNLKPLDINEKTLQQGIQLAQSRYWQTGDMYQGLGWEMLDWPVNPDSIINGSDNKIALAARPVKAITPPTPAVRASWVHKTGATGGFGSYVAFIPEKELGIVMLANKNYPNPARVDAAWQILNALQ

Compound	Potency	activity change, negative = inhibition
COc1cc(OC)cc(C(=O)N2CCC(C(=O)c3ccc(F)cc3)CC2)c1	inconclusive: 0.631 µM [inhibitor, full curve, poor fit]	
COc1ccc(C(=O)CSc2nnc(CNC(=O)c3ccc(OC)c(OC)c3)n2C)cc1	inconclusive: 2.51 µM [inhibitor, full curve]	
CSc1ccc(-c2nnn(Cc3ccc(Br)cc3)n2)cc1	inconclusive: 3.98 µM [inhibitor, single point]	
CC(C(=O)NC1CCCCCC1)N(c1ccccc1)S(C)(=O)=O (configuration not stated)	inconclusive: 50.1 µM [inhibitor, partial curve, poor fit]	
COc1ccc(NC(=O)C2CCN(C3=NS(=O)(=O)C(c4ccc(C)c(C)c4)=C3C)CC2)cc1OC		inactive: 16.2%
CCOC(=O)/C(C#N)=C(C)/C=C1\Sc2ccccc2N1CC	inconclusive: 56.2 µM [inhibitor, partial curve]	
O=C1c2ccccc2C(=O)N1CCCCN(C(=O)c1cc2ccccc2oc1=O)c1ccc(F)cc1F		inactive: 5.06%
O=C(c1cc(C2CC2)on1)N1CCN(C(c2ccccc2)c2ccccc2)CC1	inconclusive: 2.82 µM [inhibitor, full curve, poor fit]	
Cc1ccc(-n2cc3c(=O)n(C)c(=O)n(C)c3c2)cc1C	inconclusive: 11.2 µM [inhibitor, full curve]	
CC(=O)Nc1ccc(S(=O)(=O)NCCN2CCOCC2)cc1	inconclusive: 100 µM [inhibitor, partial curve, poor fit]	
Cc1ccc2c(c1)N(C(=O)CCC(=O)N1CCCCC1)CCO2	inconclusive: 14.1 µM [inhibitor, full curve, poor fit]	
COc1cccc(NC(=O)COc2ccc3c(c2)CCC3)c1	inconclusive: 5.62 µM [inhibitor, full curve, poor fit]	
COc1cccc2[nH]c3c(N4CC(C)CC(C)C4)ncnc3c12 (configuration not stated)	inconclusive: 3.55 µM [inhibitor, full curve, poor fit]	
CCCCN(Cc1cc2cc(OC)ccc2[nH]c1=O)S(=O)(=O)c1ccc(C)cc1	inconclusive: 35.5 µM [inhibitor, full curve]	
COc1ccc(-c2nc(CS(=O)CC(=O)NCc3cccnc3)c(C)o2)cc1OC (configuration not stated)	inconclusive: 10 µM [inhibitor, partial curve]	
Cc1cc(C)cc(NS(=O)(=O)c2ccc(-c3cc(C)no3)cc2)c1		inactive: 11.6%
CCN1CCN(Cc2ccc(NC(=O)c3cc(NC(=O)c4cncc(-c5cccs5)c4)cc(OC)c3)cc2C(F)(F)F)CC1		inactive: -6.71%
CC(=O)c1cccc(NC(=O)C(=O)Nc2cccc3ccccc23)c1		inactive: 4.59%
NC(=O)CSc1nc2scc(-c3ccco3)c2c(=O)n1-c1ccccc1	inconclusive: 4.47 µM [inhibitor, single point]	
Cc1cccc(NC(=O)COC(=O)CSc2ccccc2)c1C	inconclusive: 0.708 µM [inhibitor, full curve, poor fit]	
Cc1ccc(-c2nn3c(-c4ccco4)nnc3c3ccccc23)cc1S(=O)(=O)NCC1CCCO1 (configuration not stated)		inactive: -1.38%
NC(=O)c1ccc(-n2nnnc2Oc2ccccc2)cc1	inconclusive: 1.78 µM [inhibitor, full curve]	
CCOC(=O)c1oc2ccccc2c1CN1CCN(c2ccccc2)CC1		inactive: 3.61%

Compound	Potency	activity change, negative = inhibition
COc1ccccc1N=C(C)C1=C(O)CSC1=O	inconclusive: 0.631 µM [inhibitor, full curve, poor fit]	
Cc1ccsc1/C=N/NC(=O)c1ccc(Cn2cc(Br)cn2)o1	inconclusive: 31.6 µM [inhibitor, partial curve, poor fit]	
CCC(C)N1Cc2ccccc2C1=N (configuration not stated)	inconclusive: 5.01 µM [inhibitor, full curve, poor fit]	
CCOc1ccc(NS(=O)(=O)c2ccc(C(=O)NCc3ccncc3)cc2)cc1	inconclusive: 0.631 µM [inhibitor, full curve, poor fit]	
COc1ccc(N2CCN(CCCNC(=O)C(=O)c3c(C)n(C)c4ccccc34)CC2)cc1		inactive: 0.531%
O=c1c(Cc2ccc(Cl)cc2Cl)c(O)ccn1Cc1ccc(Cl)cc1		inactive: -6.48%
CCOC(=O)N1CCN(Cc2nc(-c3cccc(C)c3)no2)CC1	inconclusive: 22.4 µM [inhibitor, single point]	
Oc1c(CN2CCCCC2)cc(COCc2ccccc2)c2cccnc12	inactive and inconclusive: 1.12 µM [inhibitor, full curve]	
Cc1cccc(N2C(=O)CCC2=O)n1	inconclusive: 5.01 µM [inhibitor, full curve]	
COc1ccc(Cl)cc1S(=O)(=O)NC(C)C(=O)NCc1ccc2c(c1)OCO2 (configuration not stated)	inconclusive: 1.12 µM [inhibitor, full curve, poor fit]	
O=C(COC(=O)c1ccccc1[N+](=O)[O-])c1ccc(C2CCCCC2)cc1		inactive: 3.57%
CCOc1ccc(NC(c2ccccc2)P(=O)(OC)OC)cc1 (configuration not stated)		inactive: 11.3%
CCc1ccc(-c2nc(CS(=O)CC(=O)NC3CCCCCC3)c(C)o2)cc1 (configuration not stated)		inactive: 2.84%
CC1=C(C(=O)Nc2ccccc2)C(c2ccc(O)cc2)n2nc(-c3ccc(Cl)cc3)nc2N1 (configuration not stated)		inactive: 0.0719%
CCCS(=O)(=O)N1CCC(Cc2ccc(OC)cc2)(C(=O)OCC)CC1	inconclusive: 4.47 µM [inhibitor, full curve, poor fit]	
CCc1ccn2cc(-c3cc(-c4ccccc4)no3)nc2c1		inactive: 4.45%
CCC(C)[C@H](N)c1nnc(SCc2ccc(Cl)c(Cl)c2)o1 (some centres not stated)		inactive: 2.22%
O=C(Nc1ccc2ccccc2c1)C(=O)C1C(=O)Nc2ccccc21 (configuration not stated)		inactive: -2.93%
CCCCc1ccc(NS(=O)(=O)c2cccc(C(=O)N3CCNC(=O)C3)c2)cc1	inconclusive: 100 µM [inhibitor, partial curve, poor fit]	
CCOC(=O)CSc1cccc2cccnc12		inactive: -8.62%
CCc1nc(SCC(=O)NCc2ccccc2)c2c(=O)n(C)c(=O)n(C)c2n1	inconclusive: 7.94 µM [inhibitor, full curve, poor fit]	
COc1cccc(N2CCN(c3nc(C)cc(C)c3C#N)CC2)c1	inconclusive: 63.1 µM [inhibitor, partial curve, poor fit]	
Cc1ccc2ncc([N+](=O)[O-])n2c1	inconclusive: 44.7 µM [inhibitor, partial curve, poor fit]	

Compound	Potency	activity change, negative = inhibition
COC(=O)C1=C(C)N(C2CCCCC2)C(=O)C1		inactive: 0.23%
CC1(C)Cc2c(sc(NC(=O)C(C)(C)C)c2C#N)C(C)(C)N1	inconclusive: 0.631 µM [inhibitor, full curve, poor fit]	
S=C(NCCc1ccccc1)Nc1ccc(Cl)cc1	inconclusive: 0.355 µM [inhibitor, full curve]	
COc1ccccc1NC(=O)C1=C(C)NC2=C(C(=O)CCC2)C1c1ccc2c(c1)OCO2 (configuration not stated)	inconclusive: 44.7 µM [inhibitor, partial curve]	
O=C(NCCCn1ccnc1)c1ccc(NS(=O)(=O)c2cccc([N+](=O)[O-])c2)cc1	inconclusive: 0.631 µM [inhibitor, full curve, poor fit]	
CCn1ccnc1C(O)(c1ccccc1)c1ccccc1	inconclusive: 1.41 µM [inhibitor, full curve, poor fit]	
Cc1nc(-c2ccc(Br)cc2)ccc1C(=O)O	inconclusive: 0.562 µM [inhibitor, full curve, poor fit]	
CCCCn1c(N)c(N(CCOC)C(=O)c2ccc(-c3ccccc3)cc2)c(=O)[nH]c1=O	inconclusive: 100 µM [inhibitor, single point]	
CCOC(=O)c1c(NC(=O)CSc2nnc(-c3c[nH]c4ccccc34)n2CCOC)sc2c1CCCC2	inconclusive: 2.51 µM [inhibitor, full curve, poor fit]	
Cn1c(SCC(=O)N2CCOCC2)nnc1-c1cccc(NC(=O)c2ccccc2)c1	inconclusive: 44.7 µM [inhibitor, partial curve]	
Cc1ccc(CNc2cc(C(=O)O)ccc2C)s1	inconclusive: 1 µM [inhibitor, full curve, poor fit]	
CCCCC(=O)Nc1nnnn1CCC	inconclusive: 100 µM [inhibitor, partial curve]	
C=CCNc1nnc(SCC(=O)N2CCCCC2)c2ccccc12	inconclusive: 5.01 µM [inhibitor, full curve, poor fit]	
O=C(N1CCOCC1)N1CCN(c2nc(-c3ccccc3)cs2)CC1	inconclusive: 4.47 µM [inhibitor, full curve, poor fit]	
Cc1ccc(C)n1-c1ccc(-c2ccnc(N)n2)cc1	inconclusive: 7.94 µM [inhibitor, full curve]	
O=C(Nc1ccc(Nc2ccncc2)cc1)c1ccc(Nc2ccnc3ccc([N+](=O)[O-])cc23)cc1[N+](=O)[O-]		inactive: -9.57%
CC(=O)Nc1ccc(NC(=O)c2ncoc2-c2ccco2)cc1		inactive: -10.6%
O=C(COc1ccc(Br)cc1CNC1CCCC1)Nc1ccccc1		inactive: 2.92%
Cc1cccc(NS(=O)(=O)c2ccc3[nH]c(=O)cc(C(=O)OC(C)C(=O)Nc4ccc([N+](=O)[O-])cc4)c3c2)c1 (configuration not stated)	inconclusive: 25.1 µM [inhibitor, single point]	
CC(=O)NC1=NN(c2ccccc2)C(=O)C1	inconclusive: 3.55 µM [inhibitor, full curve, poor fit]	
O=C(NCc1ccc2[nH]c3c(c2c1)CCCC3)c1ccc(S(=O)(=O)N2CCCCC2)cc1	inconclusive: 112 µM [inhibitor, partial curve, poor fit]	
